This is an account of results in US20130347134A1 (published 2013).

First the molecules themselves.
B4: human platelet glycoprotein Ib alpha (GPIb α) on human platelets (receptor)
chain: not shown
notes: whole, on cells; Native receptor on washed platelets or whole blood; also called GPIb alpha; hGPIb-α

The target in assay [1] is B4. Briefly: transient tethers of VWF-A1-coated beads on surface-immobilized human platelets; shear stress 3.0 dyn cm-2; R2 0.97. The procedure: (§1) The force acting on the i tether bond was calculated from force balance equations and koff plotted as a function of these forces. […] Because these platelets cannot activate, the kinetics should be reflective of GPIb α in the resting state.
(§2) This antibody was made by immunizing Fischer 344 rats (3-4 months old) with recombinant WT protein. […] Spleens from animals with the highest antibody titers were harvested and splenocytes fused with Sp2/0 mouse myeloma cells (Kohler, et al., 1975).

Assay [2] addresses B4. Briefly: transient tethers of VWF-A1-coated beads on immobilized platelets, WSS 1.5 dyn cm-2; platelets fixed in paraformaldehyde; R2 0.98. As to the method: (§3) The duration of these interactions are measured by recording images from a Nikon X60 DIC objective (oil immersion) viewed at a frame rate of 235 fps (Speed Vision Technologies, San Diego, Calif.) and subjected to wall shear stresses (WSS) ranging from 0.5 to 3.0 dyn cm⁻². […] The force acting on the i tether bond was calculated from force balance equations and koff plotted as a function of these forces. […] Because these platelets cannot activate, the kinetics should be reflective of GPIb α in the resting state.

The target in assay [3] is B4. Briefly: transient tethers of VWF-A1-coated beads on surface-immobilized human platelets; shear stress 2.0 dyn cm-2; R2 0.95. As to the method: as §1, §2
Assay [4] has as its target B4. Description: transient tethers of VWF-A1-coated beads on surface-immobilized human platelets in flow, distribution of interaction times; WSS 0.5 dyn cm-2; R2 0.98. The procedure: (§4) The duration of these interactions are measured by recording images from a Nikon X60 DIC objective (oil immersion) viewed at a frame rate of 235 fps (Speed Vision Technologies, San Diego, Calif.) and subjected to wall shear stresses (WSS) ranging from 0.5 to 3.0 dyn cm⁻². […] The force acting on the i tether bond was calculated from force balance equations and koff plotted as a function of these forces.

Assay [5] addresses B4. Briefly: transient tethers of VWF-A1-coated beads on surface-immobilized human platelets in flow, distribution of interaction times; WSS 1.5 dyn cm-2; R2 0.96. The procedure: as §4
The target in assay [6] is B4. Briefly: transient tethers of VWF-A1-coated beads on surface-immobilized human platelets; shear stress 0.5 dyn cm-2; R2 0.94. As to the method: as §3
Assay [7] addresses B4. Briefly: transient tethers of VWF-A1-coated beads on surface-immobilized human platelets in flow, distribution of interaction times; WSS 1.0 dyn cm-2; R2 0.97. The procedure:
as §4

Assay [8] concerns the target B4. Description: transient tethers of VWF-A1-coated beads on immobilized platelets, WSS 1.5 dyn cm-2; unfixed platelets (treated with metabolic inhibitors); R2 0.98. As to the method: as §4
The target of assay [9] is B4. Description: transient tethers of human VWF-A1-coated beads on surface-immobilized human platelets, wall shear stress 1 dyn cm-2; R2 0.97. As to the method: as §3
Assay [10] addresses T1, murine platelet glycoprotein Ib alpha (GPIb α) on mouse platelets (mouse, UniProt O35930 17-734).
T1 construct: whole, on cells; Native receptor on mouse platelets or whole blood; also called murine GPIb α; mGPIb-α
T1 sequence (looked up): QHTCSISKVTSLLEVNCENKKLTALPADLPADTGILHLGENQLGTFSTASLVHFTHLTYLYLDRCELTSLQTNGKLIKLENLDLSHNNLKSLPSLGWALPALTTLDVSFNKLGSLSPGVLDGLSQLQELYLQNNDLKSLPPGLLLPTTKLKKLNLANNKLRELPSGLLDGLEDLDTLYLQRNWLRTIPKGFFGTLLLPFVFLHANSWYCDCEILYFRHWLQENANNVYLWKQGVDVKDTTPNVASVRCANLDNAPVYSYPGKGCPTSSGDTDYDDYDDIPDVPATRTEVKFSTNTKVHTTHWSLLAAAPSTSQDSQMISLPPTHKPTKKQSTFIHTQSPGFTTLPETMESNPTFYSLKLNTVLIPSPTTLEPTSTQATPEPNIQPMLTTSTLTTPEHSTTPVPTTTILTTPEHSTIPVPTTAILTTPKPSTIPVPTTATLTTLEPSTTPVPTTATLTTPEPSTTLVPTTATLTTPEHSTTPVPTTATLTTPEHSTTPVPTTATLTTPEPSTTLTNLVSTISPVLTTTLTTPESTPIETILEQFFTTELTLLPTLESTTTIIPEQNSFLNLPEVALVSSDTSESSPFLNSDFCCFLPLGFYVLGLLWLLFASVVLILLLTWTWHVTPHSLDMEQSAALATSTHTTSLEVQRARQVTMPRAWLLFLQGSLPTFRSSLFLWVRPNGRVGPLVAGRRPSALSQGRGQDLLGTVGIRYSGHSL
Briefly: murine platelets perfused over immobilized mutant VWF-A1, wall shear rate 800 s-1.

In assay [11] the target is T2, human plasma von Willebrand factor (VWF) (human, UniProt P04275 764-2813).
T2 construct: Plasma-derived multimeric VWF, purified or captured on polyclonal anti-VWF; also called human VWF; human plasma VWF
Description: human whole blood perfused 4 min over surface-immobilized plasma VWF, 1600 s-1. As to the method: (§5) Ex vivo platelet adhesion studies. Experiments were performed in a parallel-plate flow chamber as previously described (Offermanns, S., et al., 2006). […] Subsequently, the plate was washed and non-specific interactions blocked by the addition of TBS containing 3% BSA, pH 7.4 (1 hour, 37° C.). Human or murine plasma obtained from heparinized whole blood was added and the plates placed at 37° C. for an additional 2 hours. […] The number of platelets attached per unit area (0.07 mm²) and translocation velocities were determined by off-line analysis (Image-Pro Plus, Media Cybernetics). For GPIb α inhibition studies, the function-blocking mAb 6D1 (20 μg/ml) or mAb SZ2 (20 μg/ml; Beckman Coulter, Brea, Calif.) was added to anticoagulated human blood for 30 minutes prior to use. Experiments were performed in triplicate on two separate days. An ELISA was used to ensure equivalent coating concentration of plasma and recombinant proteins (Denis, C. et al., 1998).

The target in assay [12] is T3, mouse plasma VWF containing the majority of the human A1 domain (amino acids 1240P through 1481G of human VWF) (mouse VWF with human A1 domain, UniProt Q8CIZ8 764-2813, limits assumed).
T3 construct: Plasma VWF from homozygous VWF-HA1 mice; also called VWF-HA1; VWF HA1
Briefly: parallel-plate flow system: human platelets over surface-immobilized plasma VWF.

Assay [13] deals with B4. Briefly: human whole blood perfused 4 min over surface-immobilized recombinant VWF-A1, 1600 s-1. The procedure:
as §5

Assay [14] concerns the target T1, murine platelet glycoprotein Ib alpha …. Briefly: platelet adhesion under flow (summary of Example 3). As to the method: as §5

B1: recombinant wild-type human VWF-A1 protein ([…]), Examples 1-2 (ligand)
chain: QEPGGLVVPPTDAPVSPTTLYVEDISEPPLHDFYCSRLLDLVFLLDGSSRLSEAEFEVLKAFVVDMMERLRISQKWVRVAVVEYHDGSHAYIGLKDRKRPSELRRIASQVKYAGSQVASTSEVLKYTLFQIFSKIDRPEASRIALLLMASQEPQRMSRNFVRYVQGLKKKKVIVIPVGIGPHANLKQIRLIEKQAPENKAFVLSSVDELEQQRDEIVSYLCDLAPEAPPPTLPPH
notes: Intrachain disulfide […]; also called WT human VWF-A1; H VWF-A1
Usually koff stands for the first-order rate constant of dissociation. A lower koff goes with a long-lived complex. For B1, the koff in assay [1] amounted to 9.6 s⁻¹; in assay [2], 7.79 s⁻¹; in assay [3], 8.1 s⁻¹; in assay [4], 4.92 s⁻¹; in assay [5], 7.35 s⁻¹; in assay [6], 5.1 s⁻¹. In addition, the koff worked out at 6.54 s⁻¹ in assay [7] and 7.48 s⁻¹ in assay [8].

B2: recombinant human VWF-A1 containing the type 2B mutation Ile1309Val (1309I>V) (ligand)
chain: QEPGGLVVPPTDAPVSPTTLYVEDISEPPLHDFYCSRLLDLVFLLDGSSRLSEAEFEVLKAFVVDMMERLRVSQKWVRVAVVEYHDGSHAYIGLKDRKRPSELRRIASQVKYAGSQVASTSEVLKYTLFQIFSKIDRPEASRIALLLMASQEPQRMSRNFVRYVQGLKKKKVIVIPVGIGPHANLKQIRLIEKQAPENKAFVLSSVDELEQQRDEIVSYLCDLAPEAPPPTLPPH
notes: also called type 2B mutation alone
Turning to B2, in [9], the koff is 0.98 s⁻¹.

B3: recombinant human VWF-A1 containing His1326Arg (1326H>R), Examples 1-2 (ligand)
chain: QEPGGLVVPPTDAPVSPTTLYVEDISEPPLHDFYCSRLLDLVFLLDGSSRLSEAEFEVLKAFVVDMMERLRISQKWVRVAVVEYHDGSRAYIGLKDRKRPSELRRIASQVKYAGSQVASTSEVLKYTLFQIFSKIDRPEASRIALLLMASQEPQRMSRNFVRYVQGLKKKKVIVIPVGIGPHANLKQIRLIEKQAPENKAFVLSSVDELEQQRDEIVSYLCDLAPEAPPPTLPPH
notes: The His tag is not described further
As for B3, in assay [10], the binding result was “binds”.

On to B4, for which the binding result in assay [11] and in assay [12] was “binds” in each case.

B5: recombinant wild-type human VWF-A1 domain protein (amino acid […]), Example 3 (ligand)
chain: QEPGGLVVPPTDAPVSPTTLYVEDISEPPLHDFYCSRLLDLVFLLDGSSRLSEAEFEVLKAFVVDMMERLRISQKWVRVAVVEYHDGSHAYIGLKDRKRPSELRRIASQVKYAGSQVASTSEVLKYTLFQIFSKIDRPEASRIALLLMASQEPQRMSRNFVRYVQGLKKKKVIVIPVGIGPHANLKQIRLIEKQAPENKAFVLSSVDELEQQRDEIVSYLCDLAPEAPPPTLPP
notes: Generated in bacteria, with a single disulfide […]; No tag is stated there; also called human rVWF-A1; WT human VWF-A1 protein
Take B5: the binding result in assay [13] is given as “binds”.

B6: recombinant human rVWF-A1 1326H>R ([…]), Example 3 (ligand)
chain: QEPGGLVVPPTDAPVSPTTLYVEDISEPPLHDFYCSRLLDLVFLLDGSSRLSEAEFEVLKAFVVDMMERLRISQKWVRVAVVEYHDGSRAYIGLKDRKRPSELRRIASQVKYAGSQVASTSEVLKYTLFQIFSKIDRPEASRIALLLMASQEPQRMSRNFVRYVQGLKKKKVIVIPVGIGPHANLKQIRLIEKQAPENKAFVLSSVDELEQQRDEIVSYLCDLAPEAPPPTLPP
For B6, the binding result in assay [14] is “binds”.
